Measured values as given in publication PMC4667432.
No constants are given. Whether binding was seen depends on the method and setting. For some assays here: Binding seen in cells or lysates may run through a third protein. Some binding calls cover weakened binding; strength is not graded here. For some assays here: Tags and fused reporters may be left off the sequences shown.

Sequences of proteins named here, by UniProt entry; tags and fusion partners are left off.
UniProt P46096: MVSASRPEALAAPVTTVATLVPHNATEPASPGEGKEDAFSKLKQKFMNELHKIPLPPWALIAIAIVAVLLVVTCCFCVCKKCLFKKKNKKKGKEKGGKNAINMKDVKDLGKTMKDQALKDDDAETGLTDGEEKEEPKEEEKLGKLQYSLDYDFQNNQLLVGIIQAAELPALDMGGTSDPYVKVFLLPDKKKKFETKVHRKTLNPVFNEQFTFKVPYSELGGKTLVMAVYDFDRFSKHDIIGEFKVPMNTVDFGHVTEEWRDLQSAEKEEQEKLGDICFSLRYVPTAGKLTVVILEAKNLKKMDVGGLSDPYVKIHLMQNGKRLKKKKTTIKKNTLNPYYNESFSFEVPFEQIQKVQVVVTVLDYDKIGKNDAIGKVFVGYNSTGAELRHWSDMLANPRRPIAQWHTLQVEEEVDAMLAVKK
UniProt P63045: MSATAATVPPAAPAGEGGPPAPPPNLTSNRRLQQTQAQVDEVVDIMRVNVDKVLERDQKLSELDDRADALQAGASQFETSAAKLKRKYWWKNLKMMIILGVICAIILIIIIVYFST
UniProt P60879: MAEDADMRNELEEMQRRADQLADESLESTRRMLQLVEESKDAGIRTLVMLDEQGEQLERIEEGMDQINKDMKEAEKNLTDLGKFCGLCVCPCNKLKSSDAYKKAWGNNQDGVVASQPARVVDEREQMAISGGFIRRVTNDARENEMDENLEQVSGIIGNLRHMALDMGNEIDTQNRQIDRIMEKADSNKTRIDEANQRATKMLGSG
UniProt P21707: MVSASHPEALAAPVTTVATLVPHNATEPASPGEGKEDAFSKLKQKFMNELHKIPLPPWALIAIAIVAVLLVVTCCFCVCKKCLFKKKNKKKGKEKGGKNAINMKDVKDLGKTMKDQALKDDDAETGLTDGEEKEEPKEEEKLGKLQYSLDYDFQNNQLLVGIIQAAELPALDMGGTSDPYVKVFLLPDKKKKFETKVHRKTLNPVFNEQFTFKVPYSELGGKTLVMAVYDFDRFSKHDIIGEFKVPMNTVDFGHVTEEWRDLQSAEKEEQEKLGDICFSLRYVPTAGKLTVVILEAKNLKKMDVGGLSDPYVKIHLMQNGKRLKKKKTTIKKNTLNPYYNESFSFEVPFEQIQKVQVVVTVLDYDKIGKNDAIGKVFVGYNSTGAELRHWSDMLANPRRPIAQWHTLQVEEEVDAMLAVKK
UniProt P63044: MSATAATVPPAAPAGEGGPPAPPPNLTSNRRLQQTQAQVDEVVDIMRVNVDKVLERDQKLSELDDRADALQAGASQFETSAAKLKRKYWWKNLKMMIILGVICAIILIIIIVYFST

Columns and labels:
[1] = target: T1, Dishevelled-1 (Dvl1), endogenous in mature rat hippocampal neurons (rat (endogenous in hippocampal neurons)) (UniProt Q9WVB9); experiment: co-IP; endogenous proteins; mature high-density hippocampal cultures lysed in Triton buffer (50 mM Hepes-NaOH, 0.1 M NaCl, 4 mM EGTA, 2 mM MgCl2, 0.5% Triton X-100); Dvl1 monoclonal antibody and protein G-Sepharose overnight at 4 °C; western blot; also after treatment of the neurons with Wnt7a (more Syt-1 with Dvl1) or Sfrps (less)
T1 sequence: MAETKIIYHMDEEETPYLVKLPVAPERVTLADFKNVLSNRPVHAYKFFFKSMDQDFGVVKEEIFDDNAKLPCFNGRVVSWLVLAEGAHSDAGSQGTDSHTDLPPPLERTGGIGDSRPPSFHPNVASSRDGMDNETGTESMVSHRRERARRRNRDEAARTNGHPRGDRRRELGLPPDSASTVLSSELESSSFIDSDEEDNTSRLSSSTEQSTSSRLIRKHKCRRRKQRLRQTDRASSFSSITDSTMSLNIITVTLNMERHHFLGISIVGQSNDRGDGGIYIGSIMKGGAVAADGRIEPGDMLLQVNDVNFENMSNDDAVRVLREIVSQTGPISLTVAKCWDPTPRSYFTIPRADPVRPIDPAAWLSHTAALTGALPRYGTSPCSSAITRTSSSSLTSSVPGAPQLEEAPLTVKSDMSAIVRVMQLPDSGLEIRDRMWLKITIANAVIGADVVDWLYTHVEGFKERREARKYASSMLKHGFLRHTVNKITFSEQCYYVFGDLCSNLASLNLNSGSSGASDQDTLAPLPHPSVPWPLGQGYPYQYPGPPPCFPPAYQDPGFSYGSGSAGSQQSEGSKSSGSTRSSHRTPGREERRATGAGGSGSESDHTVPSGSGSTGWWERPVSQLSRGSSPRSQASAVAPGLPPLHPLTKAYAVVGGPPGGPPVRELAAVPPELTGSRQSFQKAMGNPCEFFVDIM

full-length Dvl1-Flag = target: T2, full-length Dvl1-Flag (UniProt P51141); experiment: co-IP; HEK-293 cells transfected with Dvl1-Flag and Syt-1-T7, with or without Dvl1-BD-HA; T7 and Flag antibodies; which protein was precipitated not given
T2 sequence: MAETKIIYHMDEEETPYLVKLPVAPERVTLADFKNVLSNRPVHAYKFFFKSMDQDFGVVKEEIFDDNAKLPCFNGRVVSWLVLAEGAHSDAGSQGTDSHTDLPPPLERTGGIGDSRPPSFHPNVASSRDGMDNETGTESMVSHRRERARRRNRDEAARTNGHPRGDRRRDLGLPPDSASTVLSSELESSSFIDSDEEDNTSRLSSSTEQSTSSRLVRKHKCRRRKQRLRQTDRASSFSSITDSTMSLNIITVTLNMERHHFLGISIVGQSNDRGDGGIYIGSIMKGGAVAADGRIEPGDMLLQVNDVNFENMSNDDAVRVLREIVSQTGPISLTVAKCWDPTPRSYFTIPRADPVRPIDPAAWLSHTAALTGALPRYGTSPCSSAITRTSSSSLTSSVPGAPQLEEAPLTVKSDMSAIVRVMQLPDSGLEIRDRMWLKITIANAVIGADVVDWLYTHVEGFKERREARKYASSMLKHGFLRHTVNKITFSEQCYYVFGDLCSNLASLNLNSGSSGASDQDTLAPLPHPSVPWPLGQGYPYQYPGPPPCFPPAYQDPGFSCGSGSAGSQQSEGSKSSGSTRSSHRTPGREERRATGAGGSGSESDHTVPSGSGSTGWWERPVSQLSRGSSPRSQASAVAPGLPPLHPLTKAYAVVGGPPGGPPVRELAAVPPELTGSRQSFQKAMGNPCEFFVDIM

[2] = target: T3, Dishevelled-1 (Dvl1), endogenous in adult mouse brain synaptosomes (mouse (endogenous in adult brain)) (UniProt P51141); experiment: co-IP; endogenous proteins; synaptosomal fraction prepared from adult mouse brain homogenate; western blot
T3 sequence: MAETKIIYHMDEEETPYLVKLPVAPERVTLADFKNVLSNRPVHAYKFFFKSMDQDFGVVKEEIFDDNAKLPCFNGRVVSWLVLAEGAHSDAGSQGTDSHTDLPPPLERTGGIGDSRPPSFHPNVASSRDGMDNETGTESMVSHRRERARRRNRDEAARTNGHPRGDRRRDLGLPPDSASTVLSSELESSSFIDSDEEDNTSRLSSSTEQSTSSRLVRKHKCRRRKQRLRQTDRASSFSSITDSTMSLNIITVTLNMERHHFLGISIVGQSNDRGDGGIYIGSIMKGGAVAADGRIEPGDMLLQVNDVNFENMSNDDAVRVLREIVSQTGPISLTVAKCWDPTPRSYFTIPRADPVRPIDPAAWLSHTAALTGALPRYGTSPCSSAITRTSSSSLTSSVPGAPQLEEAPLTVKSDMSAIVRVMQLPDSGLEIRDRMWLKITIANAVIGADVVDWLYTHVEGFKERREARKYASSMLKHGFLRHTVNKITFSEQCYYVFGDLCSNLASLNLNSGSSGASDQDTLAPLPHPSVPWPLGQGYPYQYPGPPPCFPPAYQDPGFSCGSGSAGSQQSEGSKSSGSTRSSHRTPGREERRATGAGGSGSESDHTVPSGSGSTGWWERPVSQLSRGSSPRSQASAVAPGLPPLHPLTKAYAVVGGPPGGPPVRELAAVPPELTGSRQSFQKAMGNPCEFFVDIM

[3] = target: T4, Dvl1 full length fused to the GAL4 DNA-BD (yeast two-hybrid bait) (UniProt P51141); experiment: two-hybrid; Dvl1 fused to the GAL4 DNA-BD (pGBKT7, AH109) as bait, SNARE proteins fused to the GAL4 AD (pGADT7, Y187) as prey; mating; growth on media lacking Histidine or Histidine and Adenine
T4 sequence: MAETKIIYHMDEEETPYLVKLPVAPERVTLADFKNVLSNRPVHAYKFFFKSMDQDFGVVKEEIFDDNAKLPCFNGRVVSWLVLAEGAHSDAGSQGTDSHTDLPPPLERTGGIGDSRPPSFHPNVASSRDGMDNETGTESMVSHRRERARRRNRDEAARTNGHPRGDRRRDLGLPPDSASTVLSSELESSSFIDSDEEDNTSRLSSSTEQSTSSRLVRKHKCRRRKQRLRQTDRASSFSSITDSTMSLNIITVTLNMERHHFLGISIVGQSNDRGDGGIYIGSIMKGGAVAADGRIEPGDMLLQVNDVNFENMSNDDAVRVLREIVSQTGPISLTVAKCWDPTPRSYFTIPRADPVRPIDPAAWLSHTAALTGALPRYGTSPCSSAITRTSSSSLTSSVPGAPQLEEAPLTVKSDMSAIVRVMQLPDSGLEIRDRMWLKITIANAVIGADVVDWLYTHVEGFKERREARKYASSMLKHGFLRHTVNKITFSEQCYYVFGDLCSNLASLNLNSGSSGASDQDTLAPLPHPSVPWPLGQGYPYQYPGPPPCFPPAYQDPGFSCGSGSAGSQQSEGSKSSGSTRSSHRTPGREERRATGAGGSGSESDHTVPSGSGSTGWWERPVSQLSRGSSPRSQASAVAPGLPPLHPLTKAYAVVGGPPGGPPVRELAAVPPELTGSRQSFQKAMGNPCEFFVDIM

Syt-1-T7 = Syt-1-T7 (UniProt P46096); experiment: co-IP; HEK-293 cells transfected with Dvl1-Flag and Syt-1-T7, with or without Dvl1-BD-HA; T7 and Flag antibodies; which protein was precipitated not given

Which binding [1] does the source give for “Synaptobrevin/VAMP2, endogenous in mature rat hippocampal neurons (from UniProt P63045 1-116)” here?
The binding was “no binding”.

Syt-1-T7 (from UniProt P46096 1-421) was tested. Which binding (full-length Dvl1-Flag) did it give?
Its binding is “binds”.

For “Synaptotagmin-1 (Syt-1), endogenous in adult mouse brain synaptosomes (from UniProt P46096 1-421)”, which binding [2] is on record?
Its binding is “binds”.

For “SNAP25 full length fused to the GAL4 activation domain (yeast two-hybrid prey) (from UniProt P60879 1-206)”, which binding [3] is on record?
Its binding is “no binding”.

For “Synaptotagmin-1 (Syt-1), endogenous in mature rat hippocampal neurons (from UniProt P21707 1-421)”, which binding [1] is on record?
Its binding is “binds”.

How did the binding [3] turn out when “VAMP2 full length fused to the GAL4 activation domain (yeast two-hybrid prey) (from UniProt P63044 1-116)” was run?
The binding was “no binding”.

“Syt-1 full length fused to the GAL4 activation domain (yeast two-hybrid prey) (from UniProt P46096 1-421)” was tested. Which binding [3] did it give?
Its binding is “binds”.

B1: Dvl1-BD (amino acids 141-227 of Dvl1 fused to HA) (domain or fragment, UniProt P51141 141-227)
chain: VSHRRERARRRNRDEAARTNGHPRGDRRRDLGLPPDSASTVLSSELESSSFIDSDEEDNTSRLSSSTEQSTSSRLVRKHKCRRRKQR
With B1 as the molecule, how does the binding (Syt-1-T7) read?
Its binding is “binds”.
